Results reported in patent US20220267464A1 (Hoffmann-La Roche, published 2022).
Read-outs that look alike come from different tables or passages of the source.

Experiments:
[1] = target: T1, human CEACAM5 (carcinoembryonic antigen, CEA) on cells (human, UniProt P06731 35-685); test: flow cytometry, CHO-k1-huCEACAM5 clone 12
T1 construct: endogenous on MKN45 gastric adenocarcinoma cells; full-length cDNA stably transfected in the CHO-K1 clones; also called huCEACAM5; MKN45 cells
T1 sequence: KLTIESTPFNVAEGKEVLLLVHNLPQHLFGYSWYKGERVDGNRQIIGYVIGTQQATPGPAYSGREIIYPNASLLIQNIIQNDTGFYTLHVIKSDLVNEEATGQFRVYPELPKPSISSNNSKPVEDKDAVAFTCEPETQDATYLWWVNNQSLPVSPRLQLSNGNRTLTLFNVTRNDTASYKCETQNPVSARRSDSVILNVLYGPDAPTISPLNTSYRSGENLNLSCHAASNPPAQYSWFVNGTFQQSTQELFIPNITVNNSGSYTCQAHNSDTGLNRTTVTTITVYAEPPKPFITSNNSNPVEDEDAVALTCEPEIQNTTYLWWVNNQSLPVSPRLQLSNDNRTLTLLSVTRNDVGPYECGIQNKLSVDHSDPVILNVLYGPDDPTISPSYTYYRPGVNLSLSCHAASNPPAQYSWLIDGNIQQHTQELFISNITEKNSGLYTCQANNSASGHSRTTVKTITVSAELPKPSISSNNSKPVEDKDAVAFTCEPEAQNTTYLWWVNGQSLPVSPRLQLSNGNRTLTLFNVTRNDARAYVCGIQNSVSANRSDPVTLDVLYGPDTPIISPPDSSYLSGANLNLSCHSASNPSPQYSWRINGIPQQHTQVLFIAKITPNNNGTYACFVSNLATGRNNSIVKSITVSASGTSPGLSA

[2] = target: T2, cynomolgus monkey CEACAM5 on CHO-k1-cynoCEACAM5 clone 8 cells (cynomolgus monkey); test: flow cytometry, CHO-k1-cynoCEACAM5 clone 8; set-up: unit not given beside the values
T2 construct: whole, on cells

[3] = target: T2, cynomolgus monkey CEACAM5 on …; test: cell-based or functional assay
[4] = target: T1, human CEACAM5 (carcinoembryonic …); test: cell-based or functional assay
[5] = target: T1, human CEACAM5 (carcinoembryonic …); test: flow cytometry, CHO-k1-huCEACAM5 clone 13
[6] = target: T1, human CEACAM5 (carcinoembryonic …); test: flow cytometry, CHO-k1-huCEACAM5 clone 11
[7] = target: T2, cynomolgus monkey CEACAM5 on …; test: flow cytometry, CHO-k1-cynoCEACAM5 clone 8; set-up: unit not given beside the values; remark: listed apart in the source
[8] = target: T2, cynomolgus monkey CEACAM5 on …; test: cell-based or functional assay; set-up: AUC of activation curve, Jurkat-hu4-1BB-NFκB-luc2, no CEA+ cells / AUC of activation curve, Jurkat-hu4-1BB-NFκB-luc2 with CHO-k1-cyno CEACAM5 clone 8: unit not given beside the values
[9] = target: T1, human CEACAM5 (carcinoembryonic …); test: cell-based or functional assay; set-up: AUC of activation curve, Jurkat-hu4-1BB-NFκB-luc2, no CEA+ cells / AUC of activation curve, Jurkat-hu4-1BB-NFκB-luc2 with CHO-k1-cyno CEACAM5 clone 8: unit not given beside the values
[10] = target: human 4-1BB on Jurkat-hu4-1BB-NFκB-luc2 reporter cells (human, UniProt Q07011 24-255); test: cell-based or functional assay; set-up: AUC of activation curve, Jurkat-hu4-1BB-NFκB-luc2, no CEA+ cells / AUC of activation curve, Jurkat-hu4-1BB-NFκB-luc2 with CHO-k1-cyno CEACAM5 clone 8: unit not given beside the values
UniProt Q07011, sequence (Q07011 24-255 limits assumed): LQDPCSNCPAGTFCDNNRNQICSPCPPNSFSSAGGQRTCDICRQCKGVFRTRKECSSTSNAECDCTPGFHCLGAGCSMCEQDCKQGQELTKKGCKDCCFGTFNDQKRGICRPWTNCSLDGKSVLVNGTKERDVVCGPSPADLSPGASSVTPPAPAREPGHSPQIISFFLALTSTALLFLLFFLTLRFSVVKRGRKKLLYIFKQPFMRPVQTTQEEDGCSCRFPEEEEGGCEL

[11] = target: T1, human CEACAM5 (carcinoembryonic …); test: flow cytometry, CHO-k1-huCEACAM5 clone 13; set-up: unit not given beside the values
[12] = target: T1, human CEACAM5 (carcinoembryonic …); test: flow cytometry, CHO-k1-huCEACAM5 clone 11; set-up: unit not given beside the values
[13] = target: T2, cynomolgus monkey CEACAM5 on …; test: flow cytometry, CHO-k1-cynoCEACAM5 clone 8
[14] = target: T1, human CEACAM5 (carcinoembryonic …); test: flow cytometry, CHO-k1-huCEACAM5 clone 12; set-up: unit not given beside the values
[15] = target: T1, human CEACAM5 (carcinoembryonic …); test: flow cytometry, CHO-k1-huCEACAM5 clone 11; remark: listed apart in the source
[16] = target: T1, human CEACAM5 (carcinoembryonic …); test: flow cytometry, CHO-k1-huCEACAM5 clone 12; set-up: unit not given beside the values; remark: listed apart in the source
[17] = target: T1, human CEACAM5 (carcinoembryonic …); test: flow cytometry, CHO-k1-huCEACAM5 clone 17; set-up: unit not given beside the values
[18] = target: T1, human CEACAM5 (carcinoembryonic …); test: flow cytometry, CHO-k1-huCEACAM5 clone 17
[19] = target: T2, cynomolgus monkey CEACAM5 on …; test: flow cytometry, CHO-k1-cynoCEACAM5 clone 8; remark: listed apart in the source
[20] = target: T1, human CEACAM5 (carcinoembryonic …); test: flow cytometry, CHO-k1-huCEACAM5 clone 11; set-up: unit not given beside the values; remark: listed apart in the source
[21] = target: T1, human CEACAM5 (carcinoembryonic …); test: flow cytometry, CHO-k1-huCEACAM5 clone 12; remark: listed apart in the source
hu N(A2-B2)A-avi-His = target: T3, hu N(A2-B2)A-avi-His (human, biotin on the avi tag where used biotinylated); test: SPR (Biacore T200), huN(A2-B2)A immobilised on a CM5 chip, construct injected as analyte 1
T3 construct: chimeric soluble antigen; also called hu N(A2-B2)A-avi-His B; human CEA (A2 domain)
T3 chain: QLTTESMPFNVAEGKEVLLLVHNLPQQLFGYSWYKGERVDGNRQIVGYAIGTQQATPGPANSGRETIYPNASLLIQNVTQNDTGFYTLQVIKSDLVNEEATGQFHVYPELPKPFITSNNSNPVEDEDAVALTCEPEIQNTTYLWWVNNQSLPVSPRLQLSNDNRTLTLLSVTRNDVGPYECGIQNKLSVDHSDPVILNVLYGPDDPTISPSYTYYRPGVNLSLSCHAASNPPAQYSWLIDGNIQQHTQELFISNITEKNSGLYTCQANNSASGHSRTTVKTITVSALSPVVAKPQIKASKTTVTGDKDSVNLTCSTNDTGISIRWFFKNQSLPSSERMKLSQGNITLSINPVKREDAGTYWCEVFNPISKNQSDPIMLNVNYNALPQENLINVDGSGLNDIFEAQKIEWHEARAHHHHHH
Method: All SPR experiments were performed on a Biacore T200 at 25° C. with HBS-EP as running buffer (0.01 M HEPES pH 7.4, 0.15 M NaCl, 3 mM EDTA, 0.005% Surfactant P20, Biacore, Freiburg/Germany).
Bulk refractive index differences were corrected for by subtracting the response obtained in a reference flow cell, where no protein was immobilized.

B1: CEA(A5B7)-4-1BBL (Fc fusion)
chain 1: REGPELSPDDPAGLLDLRQGMFAQLVAQNVLLIDGPLSWYSDPGLAGVSLTGGLSYKEDTKELVVAKAGVYYVFFQLELRRVVAGEGSGSVSLALHLQPLRSAAGAAALALTVDLPPASSEARNSAFGFQGRLLHLSAGQRLGVHLHTEARARHAWQLTQGATVLGLFRVTPEIPAGLGGGGSGGGGSREGPELSPDDPAGLLDLRQGMFAQLVAQNVLLIDGPLSWYSDPGLAGVSLTGGLSYKEDTKELVVAKAGVYYVFFQLELRRVVAGEGSGSVSLALHLQPLRSAAGAAALALTVDLPPASSEARNSAFGFQGRLLHLSAGQRLGVHLHTEARARHAWQLTQGATVLGLFRVTPEIPAGLGGGGSGGGGSRTVAAPSVFIFPPSDRKLKSGTASVVCLLNNFYPREAKVQWKVDNALQSGNSQESVTEQDSKDSTYSLSSTLTLSKADYEKHKVYACEVTHQGLSSPVTKSFNRGE[human IgG1 Fc with changes not spelt out]
chain 2: REGPELSPDDPAGLLDLRQGMFAQLVAQNVLLIDGPLSWYSDPGLAGVSLTGGLSYKEDTKELVVAKAGVYYVFFQLELRRVVAGEGSGSVSLALHLQPLRSAAGAAALALTVDLPPASSEARNSAFGFQGRLLHLSAGQRLGVHLHTEARARHAWQLTQGATVLGLFRVTPEIPAGLGGGGSGGGGSASTKGPSVFPLAPSSKSTSGGTAALGCLVEDYFPEPVTVSWNSGALTSGVHTFPAVLQSSGLYSLSSVVTVPSSSLGTQTYICNVNHKPSNTKVDEKVEPKSC
heavy: EVKLVESGGGLVQPGGSLRLSCATSGFTFTDYYMNWVRQPPGKALEWLGFIGNKANGYTTEYSASVKGRFTISRDKSQSILYLQMNTLRAEDSATYYCTRDRGLRFYFDYWGQGTTLTVSSASTKGPSVFPLAPSSKSTSGGTAALGCLVKDYFPEPVTVSWNSGALTSGVHTFPAVLQSSGLYSLSSVVTVPSSSLGTQTYICNVNHKPSNTKVDKKVEPKSCDKTHTCPPCPAPEAAGGPSVFLFPPKPKDTLMISRTPEVTCVVVDVSHEDPEVKFNWYVDGVEVHNAKTKPREEQYNSTYRVVSVLTVLHQDWLNGKEYKCKVSNKALGAPIEKTISKAKGQPREPQVCTLPPSRDELTKNQVSLSCAVKGFYPSDIAVEWESNGQPENNYKTTPPVLDSDGSFFLVSKLTVDKSRWQQGNVFSCSVMHEALHNHYTQKSLSLSP
light: QTVLSQSPAILSASPGEKVTMTCRASSSVTYIHWYQQKPGSSPKSWIYATSNLASGVPARFSGSGSGTSYSLTISRVEAEDAATYYCQHWSSKPPTFGGGTKLEIKRTVAAPSVFIFPPSDEQLKSGTASVVCLLNNFYPREAKVQWKVDNALQSGNSQESVTEQDSKDSTYSLSSTLTLSKADYEKHKVYACEVTHQGLSSPVTKSFNRGEC
notes: anti-CEA Fc hole chain and light chain; P329G LALA
In the case of B1, the EC50 [1] is reported as 21.7 nM, the AUC [2] is reported as 15600 and the “EC50, NFκB-luciferase in Jurkat-hu4-1BB-NFκB-luc2 with CHO-k1-cyno CEACAM5 clone 8” value [3] is reported as 0.17 nM. For the same binder, the “EC50, NFκB-luciferase in Jurkat-hu4-1BB-NFκB-luc2 with CHO-k1-human CEACAM5 clone 11” value [4] was 0.12 nM, the “EC50, NFκB-luciferase in Jurkat-hu4-1BB-NFκB-luc2 with CHO-k1-human CEACAM5 clone 12” value [4] was 0.08 nM and the EC50 [5] was 15.2 nM. For the same binder, the EC50 [6] was 10 nM, the AUC [7] was 2140 and the “AUC of activation curve, Jurkat-hu4-1BB-NFκB-luc2 with CHO-k1-cyno CEACAM5 clone 8” value [8] was 88700. The “AUC of activation curve, Jurkat-hu4-1BB-NFκB-luc2 with CHO-k1-human CEACAM5 clone 11” value [9] was 146000, the “AUC of activation curve, Jurkat-hu4-1BB-NFκB-luc2 with CHO-k1-human CEACAM5 clone 12” value [9] was 137000 and the “AUC of activation curve, Jurkat-hu4-1BB-NFκB-luc2, no CEA+ cells” value [10] was 2040. For the same binder, the AUC [11] was 98400, the AUC [12] was 3010 and the EC50 [13] was 41.9 nM. The AUC [14] was 7900, the EC50 [15] was 31.1 nM and the AUC [16] was 55700. It also gave an AUC [17] of 16300, an EC50 [18] of 7.38 nM and an EC50 [19] of 31.4 nM. For the same binder, the AUC [20] was 15000, the EC50 [21] was 11 nM and the binding result (hu N(A2-B2)A-avi-His) was “binds”.
